This is an account of results in article PMC10668032.

This is one part of the list. At the low end of the ranking the order means little.

The target in this test is SIX1-Q177R homeodomain (UniProt Q15475). Kind of test: universal protein binding microarray. The following applies: Universal all-10-mer PBM (8x60K, AMADID 030236), 300 nM GST-tagged protein, Alexa Fluor 488 anti-GST; buffer, salt, pH and temperature not stated; high values mean tight binding; most listed sequences are background and not binding sites; double strand, one strand shown.
With CACAACGG, the binding signal came out at 0.0935 E-score.

In the case of ATAGTCCC, the binding signal is -0.183 E-score.

Take GATGTCAA: the binding signal was -0.133 E-score.

In the case of ATTGGCTG, the binding signal was -0.228 E-score.

For the sequence ATAACCGC, the binding signal is -0.0892 E-score.

Regarding GAGTTGCA, the binding signal stood at 0.0815 E-score.

As to CGCGACCA, the binding signal was -0.17 E-score.

For CGTTACAC, the binding signal was found to be 0.424 E-score.

Consider AACTCTAA, for which the binding signal was -0.0839 E-score.

For the sequence ACTCAATG, the binding signal was determined as 0.059 E-score.

Regarding ACTCTATA, the binding signal is -0.0385 E-score.

In the case of GCAATCGC, the binding signal is -0.101 E-score.

In the case of GTCAAGTA, the binding signal amounted to 0.0362 E-score.

In the case of CAATCAAA, the binding signal was -0.15 E-score.

Regarding AGGGCCGG, the binding signal was -0.136 E-score.

With CGGAGCGC, the binding signal is -0.0175 E-score.

Turning to GTCTTAAA, the binding signal was -0.04 E-score.

Turning to ACAATACA, the binding signal was 0.194 E-score.

In the case of AAAAATGG, the binding signal was -0.185 E-score.

For the sequence GAAACTCA, the binding signal is -0.282 E-score.

Turning to CGATTACG, the binding signal amounted to 0.121 E-score.

Take TCATATGA: the binding signal came to 0.073 E-score.

With CAACGGTC, the binding signal is -0.177 E-score.

With GGAGGACC, the binding signal was -0.198 E-score.

For the sequence AAAGTCTC, the binding signal is -0.185 E-score.

As for CCCTCTTC, the binding signal was -0.0766 E-score.

For GATCTAAA, the binding signal is -0.209 E-score.

As to CTCGTATC, the binding signal was found to be 0.0229 E-score.

On to ATTTCTCG, for which the binding signal was -0.0917 E-score.

Consider AAGAGTGA, for which the binding signal was 0.0402 E-score.

Consider ATCGTACC, for which the binding signal is -0.0381 E-score.

AAATTAGG: the binding signal is -0.168 E-score.

Take AACGTAAC: the binding signal was found to be 0.0085 E-score.

Consider CACGAGGG, for which the binding signal came out at 0.189 E-score.

As to GGAAGGCA, the binding signal was -0.138 E-score.

Turning to GGAATGTA, the binding signal is -0.0614 E-score.

With CGGGCGAA, the binding signal was -0.103 E-score.

On to CACTGCGC, for which the binding signal was 0.0832 E-score.

Turning to CATCGGCG, the binding signal amounted to 0.00039 E-score.

Take CAACAGTA: the binding signal was -0.23 E-score.

AACGTGGG: the binding signal is -0.18 E-score.

With ACATCTCT, the binding signal came out at 0.153 E-score.

CCGGGCCC: the binding signal is -0.0568 E-score.

On to GATCGGGA, for which the binding signal is -0.0452 E-score.

Consider ATTTTGTG, for which the binding signal came to 0.0615 E-score.

Take AATTCCCT: the binding signal was -0.124 E-score.

As to ATCAGGTA, the binding signal is 0.0475 E-score.

Turning to CAGGAACC, the binding signal is -0.117 E-score.

Turning to GGTCGGCA, the binding signal is 0.0392 E-score.

On to AATGAATG, for which the binding signal was -0.198 E-score.

On to ATACCAAA, for which the binding signal was found to be 0.114 E-score.

For the sequence TACGTGCA, the binding signal is 0.032 E-score.

In the case of TGCTAACA, the binding signal came out at 0.0666 E-score.

As to CTTCGCCA, the binding signal was -0.184 E-score.

Turning to ATAACGTG, the binding signal came to 0.139 E-score.

In the case of ATTATATG, the binding signal was -0.0371 E-score.

Take AACGAACA: the binding signal is 0.208 E-score.

AGTTGTTG: the binding signal is -0.263 E-score.

Turning to ATGTGCTG, the binding signal was -0.156 E-score.

In the case of CCCCGTGA, the binding signal was found to be 0.0655 E-score.

As to GGGACCAC, the binding signal is 0.041 E-score.

As for ACGTATGA, the binding signal is -0.135 E-score.

As for CAAAGATC, the binding signal was -0.121 E-score.

Consider AATGGAGA, for which the binding signal is 0.00277 E-score.

In the case of TAGGCGAA, the binding signal is -0.0539 E-score.

Take CCCACACA: the binding signal is 0.134 E-score.

Turning to CTAAGGAA, the binding signal is -0.181 E-score.

Take GTCCTTCA: the binding signal was found to be 0.0531 E-score.

As to ATAAGCAA, the binding signal was -0.0358 E-score.

For ACCTCGCG, the binding signal was 0.00558 E-score.

On to CACCCTTC, for which the binding signal is 0.31 E-score.

On to TAAACCCA, for which the binding signal worked out at 0.0749 E-score.

As for ACCGTGCT, the binding signal stood at 0.0925 E-score.

On to AGGCAGAA, for which the binding signal was -0.152 E-score.

Regarding AATCCTAT, the binding signal is -0.22 E-score.

As to CTGATTCA, the binding signal is -0.0785 E-score.

For CGCGGGCC, the binding signal was -0.061 E-score.

As for TCCTGCCA, the binding signal is -0.0205 E-score.

Consider ACTGCCTA, for which the binding signal was -0.122 E-score.

As to GTTTTCCA, the binding signal is -0.0214 E-score.

For AGGCAACG, the binding signal is -0.0625 E-score.

Regarding CCGCAAGC, the binding signal is -0.186 E-score.

CCATCTGA: the binding signal is 0.103 E-score.

For CACCGCAA, the binding signal was 0.284 E-score.

With GAACCACA, the binding signal is -0.0335 E-score.

Consider ACAGAGCC, for which the binding signal is -0.312 E-score.

For GGTGTGAC, the binding signal was 0.435 E-score.

As for GAGGTGTA, the binding signal was determined as 0.466 E-score.

On to GCGCGGCC, for which the binding signal was -0.324 E-score.

Regarding GTCATTTA, the binding signal was -0.048 E-score.

For the sequence CCTTTACG, the binding signal stood at 0.0293 E-score.

Turning to CGTAATAA, the binding signal was -0.114 E-score.

Consider GAATAGAC, for which the binding signal is -0.192 E-score.

As to AGCCGCCG, the binding signal is -0.238 E-score.

Turning to GGACCACC, the binding signal is -0.06 E-score.

On to GACGCGCC, for which the binding signal was 0.0406 E-score.

For the sequence CATCGATA, the binding signal was -0.052 E-score.

As to TCGGCCAA, the binding signal was -0.256 E-score.

In the case of ACGAGGCT, the binding signal stood at 0.0205 E-score.

With CCGCGTTC, the binding signal was determined as 0.0678 E-score.

For the sequence GTTTAGTA, the binding signal is 0.0263 E-score.

For the sequence GAGTGAGC, the binding signal was determined as 0.0692 E-score.

As for CCAGAACA, the binding signal is 0.261 E-score.

With GCCCAGCC, the binding signal was -0.0771 E-score.

On to CGTCCGGC, for which the binding signal worked out at 0.0615 E-score.

In the case of AAGCAATG, the binding signal amounted to 0.135 E-score.

Regarding AAATATGG, the binding signal was -0.0799 E-score.

Regarding GATTGTTA, the binding signal turned out to be 0.107 E-score.

Regarding AATACTTC, the binding signal was -0.198 E-score.

Turning to GCTGGGAA, the binding signal is -0.12 E-score.
